# Test results: paper PMC12136788
# The other results are listed elsewhere or left out.
# T1: UNK ZnF1-3 (human, UniProt Q9C0B0 31-174)
# T1 sequence: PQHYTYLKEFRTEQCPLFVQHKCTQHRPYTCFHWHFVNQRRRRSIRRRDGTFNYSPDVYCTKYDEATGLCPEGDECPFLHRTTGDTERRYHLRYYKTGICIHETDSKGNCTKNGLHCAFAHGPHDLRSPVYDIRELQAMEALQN
# B1: chr12:105536279:105536280:+_ENSG00000136051_ENST00000332180|hu_mus|hu_hu_hu_mus_True|18_48 (ssRNA)
# RNA: GGGAGUUCUACAGUCCGACGAUCAGCACUGAACAUGUAAUGUAAUCUGGCUGCAUCGACAGCAUUUUCAUAUACAUCAUCUAAAUAAAUUGGGAAGACAGCGCGAUGCCAGUAUAAAAAACAACAGUCACACUGUGCUUGGACCAACAGAGGAUUGAGCAUCA
# B2: chr2:198351390:198351391:-_ENSG00000144381_ENST00000345042|hu_hu|hu_hu_hu_mus_False|38_48 (ssRNA)
# RNA: GGGAGUUCUACAGUCCGACGAUCUCAUUCCCACCCUCCACAGAAAGGCUGCUUCUGAACUCUCAUGUGGUGACACAGCGCUACAGUCCUGAUUUUAACAGAAUAGUAGAGAUGCCUCAGUGAUUUAAGUUGAAAGCAGGACACCAACAGAGGAUUGAGCAUCA
# B3: chr3:10015032:10015033:+_ENSMUSG00000027533_ENSMUST00000029046|mus_hu|motif|central (ssRNA)
# RNA: GGGAGUUCUACAGUCCGACGAUCGUUUUUACCAUCACAAGUGAUGAUACAAUCUGGCUUGGCCAUUGCGCCCAUUUUUCGCAAAGCGGUUCCCACUCCUAGCUCCUUCAUGUAUUCAUCAAAGCCUUUGCUGUCCACCAGGCGCAACAGAGGAUUGAGCAUCA
# B4: chr17:13112271:13112272:+_ENSMUSG00000068039_ENSMUST00000151287|mus_mus|FALSE|FALSE (ssRNA)
# RNA: GGGAGUUCUACAGUCCGACGAUCAAUCAGGUUCUCAUUGAUAUAACGCACCGCUUCCUUGCAGGCAAGACGAUAGCCACUAAUAACUGAUGUUGGAUGAAUUUUCUGUUUGACUAGCUCAUCUGCAUUUUUCAGAAGCUCCGCCAACAGAGGAUUGAGCAUCA
# B5: chr12:21621489:21621490:+_ENSG00000121350_ENST00000240651|hu_hu|motif|central (ssRNA)
# RNA: GGGAGUUCUACAGUCCGACGAUCGACUUUGAUGUAUUCUCGUCCUUUGGUACAUCUCAGCAUUAAUUCAUGAUCUGAACCGGAGCCCUGUGCAUUGUAUUUUCCCAGCAGUACAACCUUAUAGUUAAAAAAUUUUGUCACAUGCAACAGAGGAUUGAGCAUCA
# B6: chr1:58468927:58468928:-_ENSMUSG00000026034_ENSMUST00000148330|mus_mus|mus_mus_mus_hu_False|18_18 (ssRNA)
# RNA: GGGAGUUCUACAGUCCGACGAUCAAUUACUGAAAAAGAUGUUCAUUACCUUAGCUAUGUACUUAAUGAACCAAAUUACCCAAACAAAAUAAACAUGGCAAUAUAAAAAUGUUAAGAAAAUAACUUACUGUACAAAAUAACUUACAACAGAGGAUUGAGCAUCA
# B7: chr4:41258970:41258971:+_ENSG00000154277_ENST00000284440|hu_mus|FALSE|FALSE (ssRNA)
# RNA: GGGAGUUCUACAGUCCGACGAUCAGCUGCAUCUUCGCGGAUGGCACCUGCAGACACAAACCCGAGGAGCCGAAAAAACAGCCGGUGGAGCCGCCCAGGCUGCUGUUAUAAAGCGCCGGCCUCGCUCACUGGGAAAGCCUGAGCCAACAGAGGAUUGAGCAUCA
# B8: chr18:48606039:48606040:+_ENSG00000141646_ENST00000342988|hu_hu|motif|central (ssRNA)
# RNA: GGGAGUUCUACAGUCCGACGAUCACAUAUUGUGUCUGUGGUACAGUCAAUACAUCUGCAACUUUUCUACUUAAAUUCUCGGUACAAAGUCACUGCCAAUUGAUAUGAUCAUUGAUGGCAAAGGGCUUAGAAUAACCAAAAGAUCAACAGAGGAUUGAGCAUCA
# B9: chr7:54823571:54823572:-_ENSG00000132432_ENST00000352861|hu_mus|hu_hu_hu_mus_False|28_58 (ssRNA)
# RNA: GGGAGUUCUACAGUCCGACGAUCUCCCAUGAUAGCAAAUCCUAUAGCUGUAGCCAUGGCAAUCUUCUGGAAUUCUUUUCUAUCAGGUUUGGUGCAUCUUUUAACCAGCCGAAUGGAGUCCUUUACAAACUGCCGGCUGGGCUCCAACAGAGGAUUGAGCAUCA
# B10: chr2:120799606:120799607:+_ENSG00000115109_ENST00000263713|hu_hu|motif|central (ssRNA)
# RNA: GGGAGUUCUACAGUCCGACGAUCGUACAUAAUCUGAUCAAACAACUCUUGUCCUUUGGCUUUUUUUGGCAAGUCCACACGGACAUCAGUACCAUCCAGAAGGGACACCCGACACGUGAUGAUGGACUUAGAAUCUCCAGCUGCCAACAGAGGAUUGAGCAUCA
# B11: chr12:111867003:111867004:+_ENSMUSG00000018707_ENSMUST00000018851|mus_mus|FALSE|FALSE (ssRNA)
# RNA: GGGAGUUCUACAGUCCGACGAUCUACCAACAUGUUUAUCUUCAUGUAGCCUUUCAGCAGCCUCUGAACAAACUCAUAGGAAGCAUACUGCCGAAGCCUCGCAGGGAAGUUCUUCAGCUGGUUCAAGAGGCCGUCUAGGUUUUGCAACAGAGGAUUGAGCAUCA
# B12: 8830324_8830444_192_5pUTR_ENSMUSG00000022507_ENSMUST00000023150|mouse|control|control (ssRNA)
# RNA: GGGAGUUCUACAGUCCGACGAUCGCCCAGGCCUCUGUGCAAGCCCGCGGAGCCGGCACCCACCCCGCACAGCCCGAGUCCUCUGCCCACCAACCCCGCUCCGAGGUGCCGCACCCUGCCCUAGCCUCGCCCGCACCCCUUUACCAACAGAGGAUUGAGCAUCA
# B13: 111065425_111065545_1520_3pUTR_ENSG00000134986_ENST00000257435|human|control|control (ssRNA)
# RNA: GGGAGUUCUACAGUCCGACGAUCAAUUUAUUUUUGUUUAUCCAUUUCGUUGGGAGCAAGGACAAAAAUGUAAAUCUACACCUUGCUUAUCAAAAUUGCCGAAAAAAGAAUGCUCUGCCUUUUAAAAAAGUAUCAUGAUUUUGUCAACAGAGGAUUGAGCAUCA
# B14: chr2:112102183:112102184:+_ENSMUSG00000027133_ENSMUST00000028553|mus_mus|FALSE|FALSE (ssRNA)
# RNA: GGGAGUUCUACAGUCCGACGAUCUGCUCGUUGAGGUAAUAUUGGAGAAACAUAACUGCCCUCAGCAAAAAGACACACGUACUACCGCCAGCCGCGUUUACUCCGAGUGCGCCGCUUCAAUCGCGUGCGCCAACAACCUUCCAGCAACAGAGGAUUGAGCAUCA
# B15: chr15:81535460:81535461:-_ENSMUSG00000022391_ENSMUST00000052374|mus_hu|FALSE|FALSE (ssRNA)
# RNA: GGGAGUUCUACAGUCCGACGAUCAGAAGACGUUAAAACCCAAAUCCCGACAGGAGGCACAGACCUGCACAUGCGCCACACCCACACACAUACUCAGGGGACUGACAGGACACAUGGGACACAGACCCGCCCUGCCUGUGGCCACAACAGAGGAUUGAGCAUCA
# B16: chr6:31635678:31635679:+_ENSG00000204435_ENST00000375882|hu_hu|FALSE|FALSE (ssRNA)
# RNA: GGGAGUUCUACAGUCCGACGAUCCAAGAUCAUGUCUAGAGCUUGUCGAUAGUGAGGGACCUGCUCAUUGAGUCCAGUAAGAUUAAAUUUGUCCUGGAUGUAGUCUUCAUCCACUUCACAGAAGAAUUCAUUGCCACGGAGCCCCAACAGAGGAUUGAGCAUCA
# B17: 59155668_59155788_2246_3pUTR_ENSMUSG00000055254_ENSMUST00000079828|mouse|control|control (ssRNA)
# RNA: GGGAGUUCUACAGUCCGACGAUCAAAGACCAUGAUGAGUGGGUCGCCCUCCACACAGACACCGUAGAACUUGACAAUGUGCUCGUGCUGGAGGUUGGUCAGCAGCUCAGCUUCCCGAUGAAAGUCCUUGCGUGCAUUGUCGCUCAACAGAGGAUUGAGCAUCA
# B18: chr9:74984206:74984207:+_ENSMUSG00000034593_ENSMUST00000123128|mus_mus|FALSE|FALSE (ssRNA)
# RNA: GGGAGUUCUACAGUCCGACGAUCACCGAUGAUUCUGUACCUCUUGUCAAAACCAAUUUCAAUAUAUUUUCCAAACCGGCUGCUAUUAUCAUUCCUGGUUGUUUUGGCAUUUCCAAUUGACUCCAUGAUGGGGUUGGAGGCCAACAACAGAGGAUUGAGCAUCA
# B19: chr9:113828744:113828745:+_ENSMUSG00000033392_ENSMUST00000111838|mus_mus|FALSE|FALSE (ssRNA)
# RNA: GGGAGUUCUACAGUCCGACGAUCAAGUAAUGUUAUGUACAGUUUUAUUGCCAGUAUAUGCACAACAGUAAGCAUAGAGCUAUAAAUACACAAUGUCAUUAACAGUAGAAAACAAAACUGUUACAGUAGGGAGAGGGUGUGGAGCAACAGAGGAUUGAGCAUCA
# B20: chrX:69798090:69798091:-_ENSMUSG00000031343_ENSMUST00000055966|mus_mus|mus_mus_mus_hu_False|28_38 (ssRNA)
# RNA: GGGAGUUCUACAGUCCGACGAUCAAGUCCCCGGGUUCUUGUCGUCUUGAUUCCCCUUGACCAGUGGUUCCAGGGAGAAUAUUAAUCAGGAAAAGAAGUACAACUCUGGUCACAUAACAGUGACUUGUUUGUGUGAUUAUCAUCCAACAGAGGAUUGAGCAUCA
# B21: chr11:2905015:2905016:-_ENSG00000129757_ENST00000380725|hu_hu|motif|central (ssRNA)
# RNA: GGGAGUUCUACAGUCCGACGAUCUUCAAAAUUUAAAAACAAAACCGAACGCUGCUCUGCGGCAGCCGCCGCCGGUUGCUGCGGCAUGAACGGUCCCAGCCGAGGCCCAGCGCCCUUCCAACGUCCGCUGCCCCGGCAGGUUCCCAACAGAGGAUUGAGCAUCA
# B22: chr14:15598107:15598108:+_ENSMUSG00000021733_ENSMUST00000057015|perfect_dup|FALSE|FALSE (ssRNA)
# RNA: GGGAGUUCUACAGUCCGACGAUCUUGCCCAGCAAACAAUGAAUAGGCAAUCCCAGUUAAUGAUGCUCCAAAAAGAGACUCUAUUGCACUUAUUCUGCCUUCUGUAGCUUCUCCAAGCAGCCCUCCAAAAGUGAUUACAGGAGACAACAGAGGAUUGAGCAUCA
# Target: T1, UNK ZnF1-3
# Test: nsRBNS (natural sequence RNA bind-n-seq); RBNS binding buffer (assumed for nsRBNS): 25 mM Tris pH 7.5, 150 mM KCl, 3 mM MgCl2, 0.01% Triton X-100, 500 ug/ml BSA, 20 U/ml SUPERase-In, 4 C; UNK is unkempt and MSI1 is Musashi-1; names of the RNAs are library labels; protein concentration not given here; high values mean tight binding
row,Binder,binding signal [enrichment R]
1,B1,2.25
2,B2,1.3
3,B3,0.776
4,B4,0.986
5,B5,1.17
6,B6,3.06
7,B7,1.88
8,B8,0.816
9,B9,0.892
10,B10,0.976
11,B11,0.594
12,B12,1.45
13,B13,1.35
14,B14,0.907
15,B15,1.1
16,B16,0.981
17,B17,0.625
18,B18,0.711
19,B19,1.36
20,B20,0.658
21,B21,0.604
22,B22,1.34
